# Test results from the supplement of paper PMC8728848.
# Some of the results follow.
# B1: AAL (Agrocybe aegerita), Q6WY08 (protein)
# chain: MQGVNIYNISAGTSVDLAAPVTTGDIVTFFSSALNLNAGAGNPNNTTLNLFAENGAYLLHIAHRLQENVIIFNSRQPDGPWLVEQRVSDVANQFAGIDGKAMVTVFDHGDKYQVVINEKTVIQYTKQISGLTLSLSYNATEETSIFSTVVEAVTYTGLALEHHHHHH
# Assays:
# Assay in all cases: glycan array binding signal (z-score within array); higher = stronger binding
# Conditions in all cases: glycan notation: IUPAC condensed, linker removed; mutation: F63H
# [1] = biological target: Neu5Gc(a2-8)Neu5Gc(a2-3)Gal(b1-4)GlcNAc(b1-3)Gal(b1-4)GlcNAc
# Procedure, shortened: (§1)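 The binding signal is a Z-score computed within each array. Data were drawn from 3228 arrays in the Consortium for Functional Glycomics database, restricted to those with a known protein sequence. Scores were averaged over arrays of the same protein sequence at different concentrations or buffers, and over linkers, and negative values can be taken as non-binding.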
# [2] = biological target: Neu5Gc(a2-8)Neu5Gc(a2-6)Gal(b1-4)GlcNAc
# Procedure, shortened: as §1
# [3] = biological target: Neu5Gc(b2-6)Gal(b1-4)GlcNAc
# Procedure, shortened: as §1
binder,measurement,setting,value
B1,glycan array binding signal (z-score),[1],-0.228
same,glycan array binding signal (z-score),[2],-0.32
same,glycan array binding signal (z-score),[3],-0.366
